# Experimental data: article PMC6919601, “Identification of Plasmodium dipeptidyl aminopeptidase allosteric inhibitors by high throughput screening” (PLoS ONE, 2019)
# The campaign covered roughly 110,000 compounds. About 230 (0.21%) showed an effect of 50% or more. Some of the results follow.
# Molecular target: DPAP1 (Plasmodium falciparum, UniProt Q8IIJ9)
# Test: primary screen, percent inhibition; read by cleavage of a fluorogenic dipeptide substrate; higher = more effect of the substance
# Design: species or system P. falciparum D10 trophozoite lysates; single well
# 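Further: 30 min substrate incubation versus DMSO and 10 µM JCP410 controls.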
# DPAP1, sequence (Q8IIJ9 whole entry, looked up): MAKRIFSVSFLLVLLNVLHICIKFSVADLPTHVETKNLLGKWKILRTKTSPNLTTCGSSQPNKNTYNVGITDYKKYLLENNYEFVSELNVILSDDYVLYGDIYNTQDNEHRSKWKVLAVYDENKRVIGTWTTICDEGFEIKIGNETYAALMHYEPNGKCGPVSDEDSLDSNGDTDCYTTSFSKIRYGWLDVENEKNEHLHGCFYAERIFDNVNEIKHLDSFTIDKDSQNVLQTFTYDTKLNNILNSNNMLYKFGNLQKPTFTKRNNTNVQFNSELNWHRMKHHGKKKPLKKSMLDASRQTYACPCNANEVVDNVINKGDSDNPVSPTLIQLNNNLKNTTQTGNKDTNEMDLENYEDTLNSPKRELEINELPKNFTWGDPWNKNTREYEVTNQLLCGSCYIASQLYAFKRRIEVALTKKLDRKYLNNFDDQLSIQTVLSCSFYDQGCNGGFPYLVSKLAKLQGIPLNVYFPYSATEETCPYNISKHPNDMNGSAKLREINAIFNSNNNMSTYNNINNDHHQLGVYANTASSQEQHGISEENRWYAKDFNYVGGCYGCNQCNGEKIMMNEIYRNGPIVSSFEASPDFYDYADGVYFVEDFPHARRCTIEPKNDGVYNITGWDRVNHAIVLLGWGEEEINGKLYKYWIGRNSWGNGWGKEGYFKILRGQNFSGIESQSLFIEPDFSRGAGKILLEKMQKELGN
row,SMILES,% Inhibition @ 10 uM [%]
1,CC(C)CNC(=O)c1cc2n(n1)C(C(F)(F)F)CC(c1ccc3c(c1)OCO3)N2 (centres unmarked),2.43
2,Cc1cc(C(=O)C(=O)Nc2nncs2)c(C)n1-c1ccc(F)cc1,2.32
3,Cc1ccc(N2CCN(c3ccc(NC(=O)C4CC=CCC4C(=O)O)cc3)CC2)cc1 (centres unmarked),-1.61
4,CC1CCCC(NC(=O)c2ccc(-n3cnc4cccnc43)cc2)C1C (centres unmarked),-0.943
5,COC(=O)c1cc(OC)c(OC)cc1NC(=O)c1ccc(Cl)cc1,1.54
6,CSc1[nH]nc(N)c1S(=O)(=O)c1ccc(Cl)cc1,-3.62
7,Cc1ccc(S(=O)(=O)N2CC3(C)CN(S(=O)(=O)c4ccc(C)cc4)CC(C)(C2)C3=O)cc1,20.5
8,Cc1c(CNCC(C)c2ccccc2)c(C(=O)O)c(C)n1Cc1ccccc1 (centres unmarked),-0.439
9,CN1CCN(CC(=O)N2N=C(c3ccc(Br)cc3)CC2c2nc3ccccc3[nH]2)CC1 (centres unmarked),-3.93
10,CCOC(=O)c1c(NC(=O)Nc2nnc(N(CC(C)C)CC(C)C)s2)sc2c1CCCC2,-2.85
11,O=C(Nc1ccc(Cl)cn1)c1sc2ccccc2c1Cl,4.66
12,Cc1cccc(-c2noc(CN(C(=O)c3ccccc3)C(C)C)n2)c1,-0.0593
13,N#CCc1nnc2n1CCCCC2,19.4
14,CCC(C)NC(=O)c1ccccc1NC(=O)CN(c1cccc(F)c1)S(C)(=O)=O (centres unmarked),-1.46
15,COCCNC(=O)CSc1nc(N)c2c3c(sc2n1)CCCC3,3.13
16,C/C(=N\CCc1c(C)[nH]c2ccc(C)cc12)C1=C(O)CC(c2ccccc2)CC1=O (centres unmarked),-2.5
17,O=C(O)c1ccc2c(c1)C(=O)N(c1cccc(C(F)(F)F)c1)C2=O,2.17
18,C#CCn1c(COc2cccc(OC)c2)nc2ccccc21,-5.92
19,Cc1ccc(C2SCC(=O)Nc3c2c(O)nn3C2CCOC(C)(C)C2)cc1 (centres unmarked),-8.11
20,O=C(C(c1ccccc1)c1ccccc1)N1CCN(C/C=C/c2ccccc2)CC1,-0.261
21,CC(C)C[C@H](CS(=O)(=O)N[C@@H](CCc1ccccc1)C(=O)C[N+](=O)[O-])NC(=O)OCc1ccccc1,13.8
22,CC(C)(C)c1ccc(OCCOc2ccccc2C=C2C(=O)NC(=O)NC2=O)cc1,-0.142
23,COCCNC(=O)Cn1nc(C)c2c(C)n(-c3ccccc3)nc2c1=O,0.756
24,CC1CCCC(NC(=O)C2CCN(S(=O)(=O)N3CCCCCC3)CC2)C1C (centres unmarked),-2.26
25,Cc1noc2ncnc(NCCCN3CCOCC3)c12,0.708

row,SMILES,% Inhibition @ 10 uM [%]
1,CN(CCNC(=O)Cn1ncc2c3ccccc3n(Cc3ccccc3)c2c1=O)C1CCCCC1,12
2,CCCOc1ccccc1C(=O)Nc1cc(-c2ccc(C)cc2)no1,-6.98
3,CCc1ccc2nc(N(CCN(C)C)C(=O)C3COc4ccccc4O3)sc2c1 (centres unmarked),-8.56
4,CC(C)(C)C1CCc2c(sc(NC(=O)c3ccccc3)c2C(N)=O)C1 (centres unmarked),-5.46
5,O=C(c1cc2c(=O)oc3ccccc3c2s1)N1CCN(Cc2ccc3c(c2)OCO3)CC1,-1.62
6,O=C1NC(=S)N/C1=C/c1ccccc1Cl,2.65
7,Cc1ccc(-n2ncc3c(O)nc(SCC(=O)NCc4ccco4)nc32)cc1C,-3.35
8,Cc1cc2nc3s/c(=C\c4ccc5c(c4)n(C)c(=O)n5C)c(=O)n3c2cc1C,-1.66
9,CCOC(=O)c1cc2c(=O)n3ccccc3nc2n(C2CCCCC2)/c1=N\C(=O)/C=C/c1ccccc1,-5.57
10,CCCC(=O)c1cc2cc(Cl)ccc2oc1=O,9.08
11,O=C(CCN1C(=O)c2ccccc2C1=O)NCc1ccco1,15.6
12,O=C(COCc1cc(-c2cccs2)on1)NC1CCCc2ccccc21 (centres unmarked),-0.234
13,COc1cc(Br)cc(/C=C2/NC(=O)N(Cc3ccc(Cl)cc3)C2=O)c1OC,5.37
14,CC1=C(C(=O)Nc2ccccc2)C(c2cccs2)n2c(s/c(=C/c3cnn(C)c3)c2=O)=N1 (centres unmarked),0.35
15,CC1(Cc2nc3ccccc3[nH]2)OCCO1,-3.48
16,COCCNC(=O)c1cc(-c2ccc(OC)cc2)on1,4.5
17,CCOC(=O)N1CCN(C(=O)c2ccc(CN(c3ccccc3)S(C)(=O)=O)cc2)CC1,-0.0925
18,O=C(CCc1nc(-c2ccc(Cl)cc2)no1)N1CCCC1,0.366
19,CC(C)(C)CC(=O)O/N=C(\N)c1cccnc1,3.34
20,CCCOc1cccc(C2c3c(-c4cc(C)ccc4O)n[nH]c3C(=O)N2CCO)c1 (centres unmarked),-1.15
21,CS(=O)(=O)N(CC(=O)NC1CCCC1)c1ccc(Br)cc1,3.32
22,NCCc1csc2c1CCCC2,-8.91
23,CSC1=C(C#N)C(c2ccc(C(C)C)cc2)CC(=O)N1 (centres unmarked),0.101
24,O=C(NCCCN1CCN(Cc2ccccc2)CC1)C1CCN(c2nnc(-n3cccc3)s2)CC1,1.15
25,CCCCNc1c(C)c(O)c(CC(=O)Nc2ccccc2)c2cc(OC)c(OC)cc12,12.1

row,SMILES,% Inhibition @ 10 uM [%]
1,COc1cc(/C=c2/sc3nc4cc(C)c(C)cc4n3c2=O)ccc1O,7.62
2,CC(C)Sc1ncc(Cl)c(C(=O)Nc2sc3c(c2C(N)=O)CCCC3)n1,0.758
3,O=C(CN1CCN(Cc2ccccc2Cl)C1=O)N1CCOCC1,-1.83
4,Oc1sc2ccccc2c2ncnc1-2,2.05
5,C=CCn1c(SCC(=O)NCC2CCCO2)nc2sc3c(c2c1=O)CCC(C)C3 (centres unmarked),-4.61
6,O=C1CCCCCC1CN1CCCCC1 (centres unmarked),1.12
7,CC1(C)CC(C)(c2ccc(O)cc2O)Oc2cc(O)ccc21 (centres unmarked),-0.216
8,COC(=O)C1=C(C)N(C)C(C)=C(C(=O)OC)C1c1ccncc1,6.18
9,COc1cccc(C(=O)N(Cc2ccccc2)c2ccccn2)c1,0.316
10,CCN(C(=O)c1cc2c(=O)n3ccccc3nc2n1C)c1cccc(C)c1,-5.13
11,COc1ccc(Cn2c(C(=O)O)c(CNCc3cccc(C)c3)c3ccc(OC)cc32)cc1,5.68
12,CCn1c(/C=C/c2c(C)n(C)c3ccc(OC)cc23)nc2ccccc2c1=O,8.47
13,Cc1cccn2c(=O)c3cc(C(=O)NCCc4ccccc4)c(=N)n(CCOCCO)c3nc12,1.97
14,O=S(=O)(NC1CCCc2ccccc21)c1ccc(-n2cccn2)cc1 (centres unmarked),-0.231
15,Cn1c(=O)c2c(n(C)c1=O)n(CC(=O)NC(C)(C)C)c(=O)n2C,1
16,CCC(C)NC(=O)Cn1cc(C=O)c2ccccc21 (centres unmarked),2.35
17,CCOc1ccc(-c2nc3s/c(=C\C=C\c4ccccc4OC)c(=O)n3n2)cc1,-3.29
18,Cc1nc(C)c(-c2ccc(SCC(=O)NCc3ccc(Cl)cc3)nn2)s1,-7.14
19,Cc1ccnc(/N=C/c2nc(-c3ccccc3Br)oc2O)c1,-2.27
20,COc1ccc(Cn2c(C(=O)O)c(CNCCc3ccc(OC)cc3OC)c3ccc(C)cc32)cc1,-5.24
21,CCN1CCCC1CNCc1c(C(=O)O)n(Cc2ccc(F)cc2Cl)c2ccccc12 (centres unmarked),3.34
22,O=C(/N=C1\SC2CS(=O)(=O)CC2N1c1cccc(C(F)(F)F)c1)c1ccccc1 (centres unmarked),4.11
23,CN1CCN(CC(=O)Nc2c(C(=O)C3CC3)oc3ccccc23)CC1,-6.08
24,Cc1ccc(N(CC(=O)N2CCCCCC2)S(=O)(=O)c2ccc(F)cc2)cc1,4.32
25,Cc1cccc(-c2nc(CS(=O)CC(=O)N3CC(C)CC(C)C3)c(C)o2)c1 (centres unmarked),0.689

row,SMILES,% Inhibition @ 10 uM [%]
1,COc1ccc(NS(=O)(=O)c2ccc(OC)c(Cl)c2Cl)cc1,1.64
2,CCCNC(=O)CN(c1ccc(C)cc1C)S(=O)(=O)c1ccccc1,4.5
3,CC1(C)Cc2c(sc3c2C(N)=NCN3)CO1,-0.274
4,COc1ccc(C(=O)NCc2ccc(Cl)cc2)cc1,-4.57
5,CCOc1ccc(/N=c2/sc3ccccc3n2C)cc1,1.73
6,Cc1ccc(CNC(=O)CN(C2CCCCC2)S(C)(=O)=O)cc1,-2.74
7,Cc1ccc(NC(=O)c2ccc(CSc3ncccn3)cc2)cc1,-3.33
8,COc1ccc(-c2[nH]nc3nc(-c4ccccc4O)cc(C(=O)O)c23)cc1,5.62
9,COc1ccc(S(=O)(=O)Nc2ccc(F)cc2)cc1,-3.04
10,COc1ccc(CC(=O)N2N=C(C)CC2(O)c2cccnc2)cc1 (centres unmarked),-1.35
11,O=S(=O)(c1ccccc1)c1nc(-c2ccc(Cl)cc2)oc1NCCCN1CCOCC1,-1.36
12,COc1ccc(N(CC(=O)N(C)Cc2ccccc2)S(=O)(=O)c2ccccc2)cc1,-11.4
13,Cc1ccc2nc(NCc3ccc(C(=O)O)cc3)c3nncn3c2c1,-0.692
14,Nc1nnc(CCS(=O)(=O)c2ccc(Br)cc2)s1,-1.77
15,CCSc1oc(-c2cccs2)nc1S(=O)(=O)c1ccc(Cl)cc1,2.17
16,Cc1ccc(N2C(=O)CC(N3CCN(Cc4ccc5c(c4)OCO5)CC3)C2=O)c(C)c1 (centres unmarked),-1.78
17,COc1ccc(OC)c(NC(=O)COc2ccccc2C(C)(C)C)c1,4.84
18,Cc1ccc(NC(=O)COc2ccccc2)cc1F,-2.8
19,CC(C)C1Cc2ccccc2-c2nc(S)nc(O)c21 (centres unmarked),2.86
20,CCO/C(O)=C1/C(CC)=NC2=C(C(=O)CC(C)(C)C2)C1c1ccccc1 (centres unmarked),14.4
21,CCCNC(=O)C(CC(C)C)N1Cc2ccccc2C1=O (centres unmarked),4.36
22,N#Cc1ccc(Cn2c(=O)sc3ccccc32)cc1,4.22
23,O=C1CCCc2c1cc(-c1ccccc1)n2-c1ccc(O)cc1,-1.52
